No constants are given. Whether binding was seen depends on the method and setting. For part of these data: In cells and extracts the contact can be indirect. Some entries that bind do so weakly or less than the wild type. For part of these data: Where a sequence is shown, tags or fusion partners need not be part of it.

Sequences of proteins named here, by UniProt entry; tags and fusion partners are left off. Residues count along the entry.
UniProt Q9FX54: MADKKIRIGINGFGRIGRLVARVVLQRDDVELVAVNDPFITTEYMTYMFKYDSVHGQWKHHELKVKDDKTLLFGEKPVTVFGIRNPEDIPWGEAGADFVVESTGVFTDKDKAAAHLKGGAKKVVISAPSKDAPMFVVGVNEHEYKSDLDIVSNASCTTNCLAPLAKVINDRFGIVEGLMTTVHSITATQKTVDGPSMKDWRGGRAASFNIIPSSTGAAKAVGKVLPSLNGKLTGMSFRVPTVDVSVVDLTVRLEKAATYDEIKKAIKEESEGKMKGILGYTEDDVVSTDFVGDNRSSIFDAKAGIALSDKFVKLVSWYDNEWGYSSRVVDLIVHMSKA
UniProt P02769, residues 25-607: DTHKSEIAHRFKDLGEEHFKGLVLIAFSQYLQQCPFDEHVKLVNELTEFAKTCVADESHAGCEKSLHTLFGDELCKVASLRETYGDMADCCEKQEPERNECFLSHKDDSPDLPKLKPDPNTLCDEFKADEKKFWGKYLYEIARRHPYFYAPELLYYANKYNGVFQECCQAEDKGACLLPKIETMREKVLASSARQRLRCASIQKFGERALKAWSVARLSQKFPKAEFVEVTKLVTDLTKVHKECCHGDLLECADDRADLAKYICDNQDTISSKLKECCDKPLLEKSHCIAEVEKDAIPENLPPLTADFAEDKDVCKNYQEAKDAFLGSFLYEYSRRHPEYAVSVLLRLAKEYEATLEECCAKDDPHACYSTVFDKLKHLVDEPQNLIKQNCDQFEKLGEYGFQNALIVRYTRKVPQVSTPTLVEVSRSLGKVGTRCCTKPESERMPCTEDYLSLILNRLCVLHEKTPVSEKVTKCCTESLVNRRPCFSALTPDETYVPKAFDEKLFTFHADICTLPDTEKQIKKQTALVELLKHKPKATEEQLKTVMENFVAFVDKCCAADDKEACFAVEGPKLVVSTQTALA
UniProt P25858: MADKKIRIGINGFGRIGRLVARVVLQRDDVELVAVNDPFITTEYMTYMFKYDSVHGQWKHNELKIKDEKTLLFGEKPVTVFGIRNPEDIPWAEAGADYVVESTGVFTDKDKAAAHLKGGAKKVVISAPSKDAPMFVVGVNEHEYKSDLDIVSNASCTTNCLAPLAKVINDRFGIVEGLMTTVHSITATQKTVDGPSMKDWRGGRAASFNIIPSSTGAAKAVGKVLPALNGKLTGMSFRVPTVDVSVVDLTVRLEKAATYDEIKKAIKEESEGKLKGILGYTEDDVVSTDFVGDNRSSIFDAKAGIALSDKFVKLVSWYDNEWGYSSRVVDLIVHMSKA

These results are taken from article PMC3540817, “Transfer of a Redox-Signal through the Cytosol by Redox-Dependent Microcompartmentation of Glycolytic Enzymes at Mitochondria and Actin Cytoskeleton” (Frontiers in Plant Science, 2012).

Assay [1] addresses T1, VDAC3 fused to the C-terminal half of YFP (A. thaliana) (UniProt Q9SMX3).
T1 sequence: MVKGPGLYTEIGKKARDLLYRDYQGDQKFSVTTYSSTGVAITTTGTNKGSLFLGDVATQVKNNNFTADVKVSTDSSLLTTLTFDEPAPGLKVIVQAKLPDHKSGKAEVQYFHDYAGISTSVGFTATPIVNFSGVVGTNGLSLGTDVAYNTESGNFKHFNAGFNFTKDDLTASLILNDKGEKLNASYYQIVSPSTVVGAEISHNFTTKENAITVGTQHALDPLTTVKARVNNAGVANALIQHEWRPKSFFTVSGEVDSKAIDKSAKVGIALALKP
Put plainly: split reporter; split YFP fusions (pUC-SPYNE, pUC-SPYCE) cotransformed in Arabidopsis mesophyll protoplasts; cLSM; mitochondria stained with MitoTracker Orange.

Assay [2] concerns the target cytosolic glyceraldehyde-3-phosphate dehydrogenase GapC2 (At1g13440), yeast two-hybrid fusion (A. thaliana) (UniProt Q9FX54). In words: two-hybrid; screen of a cDNA library from A. thaliana suspension cell culture with GapC1 or GapC2 as bait (Matchmaker kit); selection on SD/QDO/X-α-Gal.
Assay [3] concerns the target cytosolic fructose 1,6-bisphosphate aldolase FBA6 (At2g36460), yeast two-hybrid fusion (A. thaliana) (UniProt Q9SJQ9). In words: two-hybrid; one-on-one assay: yeast AH109 cotransformed with bait and prey vectors; drop test on SD/TDO and SD/QDO/X-α-Gal.
Assay [4] addresses bovine serum albumin (bovine) (UniProt P02769). Put plainly: far-Western, overlay or dot blot; 2 μg of each protein spotted on nitrocellulose, overlaid with 100 μg/ml aldolase with 0.1 mM GSNO, 5 mM GSSG, 1 mM diamide + 1 mM GSH or 0.5 mM H2O2 + 0.5 mM GSH, 1 h room temperature; glutaraldehyde cross-linking; anti-aldolase antibody; both purified.
In assay [5] the target is T2, recombinant GAPDH GapC1 (At3g04120) (A. thaliana, UniProt P25858 1-338).
T2 construct: cytosolic NAD-dependent glyceraldehyde-3-phosphate dehydrogenase GapC1, A. thaliana, At3g04120; Redox reagents (diamide + GSH, GSSG, GSNO, H2O2 + GSH, DTT) were added to the mixtures; the redox state is told by the assay; source: recombinant, purified
Put plainly: far-Western, overlay or dot blot; GapC spotted on nitrocellulose, overlaid with VDAC3 in liposomes, with 10 mM DTT; anti-VDAC1 serum, ECL; both purified.

Assay [6] addresses bovine serum albumin (bovine) (UniProt P02769). In words: far-Western, overlay or dot blot; GapC and BSA spotted on nitrocellulose, overlaid with VDAC3 in liposomes, without DTT (oxidized GapC); anti-VDAC1 serum, ECL; both purified.

Consider “GapC1 fused to a half of YFP (BiFC) (from UniProt P25858 1-338) (enzyme)”, for which, in assay [1], the binding result is reported as “binds”. Regarding “cytosolic glyceraldehyde-3-phosphate dehydrogenase GapC1 (At3g04120), yeast two-hybrid fusion (from UniProt P25858 1-338) (enzyme)”, the binding result in assay [2] was “binds weakly”.

B1: cytosolic fructose 1,6-bisphosphate aldolase FBA6 (At2g36460), yeast two-hybrid fusion (enzyme, UniProt Q9SJQ9 1-358)
chain: MSSFTSKFADELIANAAYIGTPGKGILAADESTGTIGKRLASINVENVESNRRALRELLFTTPGALPCLSGVILFEETLYQKSSDGTPFVDMLKSAGVLPGIKVDKGTVELAGTNGETTTQGLDGLGDRCKKYYEAGARFAKWRAVLKIGVNEPSQLAIHENAYGLARYAVICQENGLVPIVEPEILVDGSHDIQKCAAVTERVLAACYKALSDHHVLLEGTLLKPNMVTPGSESAKVAPEVIAEHTVRALQRTVPAAVPAIVFLSGGQSEEEATRNLNAMNQLKTKKPWSLSFSFGRALQQSTLKTWGGKEENVKKAQEAFLVRCKANSEATLGAYKGDAKLGEGAAESLHVKDYKY
On to B1, for which the binding result in assay [3] is on record as “binds weakly”.

B2: recombinant cytosolic fructose 1,6-bisphosphate aldolase (FBA6, At2g36460) (enzyme, A. thaliana, UniProt Q9SJQ9 1-358, looked up)
chain: B1 chain
notes: cytosolic fructose 1,6-bisphosphate aldolase FBA6, A. thaliana, At2g36460; Redox reagents were added to the mixtures; no modified residues are named; the redox state is told by the assay; source: recombinant, purified
Take B2: the binding result in assay [4] is listed as “no binding (tested: 100 μg/ml)”.

B3: VDAC3 (At5g15090) reconstituted into liposomes (natural protein, A. thaliana, UniProt Q9SMX3 1-274, looked up)
chain: T1 sequence
notes: voltage-dependent anion channel VDAC3, A. thaliana, At5g15090; also called VDAC3 in liposomes; porin; source: cell-free system (RTS 100 Wheat Germ CECF), separated from the reaction mix via reconstitution into liposomes
For B3, the binding entry is on record as “no binding (condition: with 10 mM DTT)” in assay [5] and “no binding” in assay [6].
